Measurements taken from ChEMBL document CHEMBL1201862, “PubChem BioAssay data set” (2004).
Active and inactive are the calls of the source. Cut-off read from the data, not from the text of the source: actives have a measured IC50 and inactives only a lower limit.

How the values were obtained:
Type in all cases: functional
Caspase-3 = target: T1, Caspase-3 (Homo sapiens, UniProt P42574);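 note: Dose-response selectivity test against caspase-3 for candidate inhibitors of sentrin-specific proteases (SENPs)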
T1 sequence (P42574 whole entry): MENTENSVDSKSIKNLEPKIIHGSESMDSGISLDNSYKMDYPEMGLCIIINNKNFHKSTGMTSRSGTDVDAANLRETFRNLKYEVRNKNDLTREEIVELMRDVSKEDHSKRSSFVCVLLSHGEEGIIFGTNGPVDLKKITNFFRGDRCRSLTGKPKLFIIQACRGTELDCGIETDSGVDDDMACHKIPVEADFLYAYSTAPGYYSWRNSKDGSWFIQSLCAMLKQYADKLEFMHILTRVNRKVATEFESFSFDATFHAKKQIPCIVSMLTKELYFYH

[1] = target: T2, Sentrin-specific protease 6 (Homo sapiens, UniProt Q9GZR1);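 note: Luminescence-based dose-response confirmatory assay of SENP6 inhibition, following up an ultra-high-throughput screen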
T2 sequence (Q9GZR1 whole entry): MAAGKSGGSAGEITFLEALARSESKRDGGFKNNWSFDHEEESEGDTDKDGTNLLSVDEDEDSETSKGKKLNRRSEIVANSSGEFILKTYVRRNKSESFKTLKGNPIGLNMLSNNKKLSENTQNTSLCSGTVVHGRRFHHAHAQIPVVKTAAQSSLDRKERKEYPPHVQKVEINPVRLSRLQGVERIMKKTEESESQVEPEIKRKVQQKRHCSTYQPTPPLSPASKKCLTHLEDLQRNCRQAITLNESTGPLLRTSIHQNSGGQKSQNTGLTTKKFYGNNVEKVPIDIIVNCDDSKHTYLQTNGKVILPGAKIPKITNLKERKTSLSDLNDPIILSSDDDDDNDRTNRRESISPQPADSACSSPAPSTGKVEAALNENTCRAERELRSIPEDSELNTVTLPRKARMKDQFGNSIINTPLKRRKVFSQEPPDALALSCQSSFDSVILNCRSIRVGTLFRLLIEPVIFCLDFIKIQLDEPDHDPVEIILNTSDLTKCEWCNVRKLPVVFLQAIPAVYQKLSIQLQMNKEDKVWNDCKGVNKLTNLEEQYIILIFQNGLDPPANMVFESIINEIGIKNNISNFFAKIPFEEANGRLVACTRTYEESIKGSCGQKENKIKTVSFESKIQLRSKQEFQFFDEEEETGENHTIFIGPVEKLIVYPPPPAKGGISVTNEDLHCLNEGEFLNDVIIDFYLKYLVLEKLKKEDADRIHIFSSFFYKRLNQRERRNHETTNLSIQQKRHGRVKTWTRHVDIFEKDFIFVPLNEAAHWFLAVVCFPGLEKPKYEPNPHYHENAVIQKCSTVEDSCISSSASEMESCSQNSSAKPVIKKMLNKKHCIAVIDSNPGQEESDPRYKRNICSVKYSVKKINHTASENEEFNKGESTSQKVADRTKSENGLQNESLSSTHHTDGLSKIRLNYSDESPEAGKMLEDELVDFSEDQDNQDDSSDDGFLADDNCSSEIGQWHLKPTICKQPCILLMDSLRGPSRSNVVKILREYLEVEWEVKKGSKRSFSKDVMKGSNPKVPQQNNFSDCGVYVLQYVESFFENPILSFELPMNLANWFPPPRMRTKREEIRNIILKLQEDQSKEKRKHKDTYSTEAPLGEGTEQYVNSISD

[2] = target: T3, Sentrin-specific protease 7 (Homo sapiens, UniProt Q9BQF6);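 note: Luminescence-based dose-response confirmation of ultra-high-throughput screening hits, measuring inhibition of SENP7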
T3 sequence (Q9BQF6 whole entry): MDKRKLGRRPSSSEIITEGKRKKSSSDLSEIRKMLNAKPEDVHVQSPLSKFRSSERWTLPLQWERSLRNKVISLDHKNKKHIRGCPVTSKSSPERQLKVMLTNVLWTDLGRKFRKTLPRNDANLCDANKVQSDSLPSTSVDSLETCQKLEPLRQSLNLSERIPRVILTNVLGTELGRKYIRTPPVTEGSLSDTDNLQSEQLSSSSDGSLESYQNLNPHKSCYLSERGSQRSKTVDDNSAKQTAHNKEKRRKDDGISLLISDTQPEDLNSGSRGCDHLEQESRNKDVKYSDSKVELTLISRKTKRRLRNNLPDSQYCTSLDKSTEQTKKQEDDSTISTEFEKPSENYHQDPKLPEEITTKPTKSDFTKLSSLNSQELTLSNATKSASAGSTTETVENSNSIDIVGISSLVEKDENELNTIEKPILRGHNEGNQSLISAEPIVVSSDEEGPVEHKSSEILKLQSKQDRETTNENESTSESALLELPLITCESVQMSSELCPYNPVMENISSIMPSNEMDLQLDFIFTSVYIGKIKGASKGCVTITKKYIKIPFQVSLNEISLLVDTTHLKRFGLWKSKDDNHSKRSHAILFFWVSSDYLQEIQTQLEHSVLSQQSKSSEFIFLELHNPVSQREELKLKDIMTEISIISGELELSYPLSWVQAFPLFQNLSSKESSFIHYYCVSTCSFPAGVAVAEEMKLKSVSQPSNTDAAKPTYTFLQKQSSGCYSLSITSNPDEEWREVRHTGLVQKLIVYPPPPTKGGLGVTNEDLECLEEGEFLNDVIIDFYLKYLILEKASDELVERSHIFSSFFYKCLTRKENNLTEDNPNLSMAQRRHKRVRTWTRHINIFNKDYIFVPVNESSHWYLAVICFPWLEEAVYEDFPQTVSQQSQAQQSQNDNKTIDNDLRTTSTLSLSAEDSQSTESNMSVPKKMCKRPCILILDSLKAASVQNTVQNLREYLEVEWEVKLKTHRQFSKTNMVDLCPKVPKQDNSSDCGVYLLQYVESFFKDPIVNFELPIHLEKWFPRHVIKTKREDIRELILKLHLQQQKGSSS

[3] = target: T4, Sentrin-specific protease 8 (Homo sapiens, UniProt Q96LD8);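 note: luminescence read-out of SENP8 inhibition, dose-response confirmation following an ultra-high-throughput screen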
T4 sequence (Q96LD8 whole entry): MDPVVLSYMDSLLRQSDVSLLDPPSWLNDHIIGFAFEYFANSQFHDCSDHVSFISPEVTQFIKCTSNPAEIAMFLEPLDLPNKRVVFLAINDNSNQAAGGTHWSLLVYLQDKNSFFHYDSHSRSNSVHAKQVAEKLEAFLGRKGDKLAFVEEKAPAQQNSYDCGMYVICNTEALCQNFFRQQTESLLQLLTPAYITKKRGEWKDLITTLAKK

Measured: IC50

Cc1cc(=O)oc2cc(OCc3ccccc3)ccc12
active: Caspase-3 = 16.5 µM | [1] 24.1 µM | [2] 7.26 µM | [3] 21 µM
